In publication PMC6484121, “Unraveling the subtleties of β-(1→3)-glucan phosphorylase specificity in the GH94, GH149, and GH161 glycoside hydrolase families” (The Journal of Biological Chemistry, 2019):

Target: T1, TaCDP (Thermosipho africanus, UniProt B7IED6)
T1 construct: gene THA_1941
T1 sequence (B7IED6 1-1019): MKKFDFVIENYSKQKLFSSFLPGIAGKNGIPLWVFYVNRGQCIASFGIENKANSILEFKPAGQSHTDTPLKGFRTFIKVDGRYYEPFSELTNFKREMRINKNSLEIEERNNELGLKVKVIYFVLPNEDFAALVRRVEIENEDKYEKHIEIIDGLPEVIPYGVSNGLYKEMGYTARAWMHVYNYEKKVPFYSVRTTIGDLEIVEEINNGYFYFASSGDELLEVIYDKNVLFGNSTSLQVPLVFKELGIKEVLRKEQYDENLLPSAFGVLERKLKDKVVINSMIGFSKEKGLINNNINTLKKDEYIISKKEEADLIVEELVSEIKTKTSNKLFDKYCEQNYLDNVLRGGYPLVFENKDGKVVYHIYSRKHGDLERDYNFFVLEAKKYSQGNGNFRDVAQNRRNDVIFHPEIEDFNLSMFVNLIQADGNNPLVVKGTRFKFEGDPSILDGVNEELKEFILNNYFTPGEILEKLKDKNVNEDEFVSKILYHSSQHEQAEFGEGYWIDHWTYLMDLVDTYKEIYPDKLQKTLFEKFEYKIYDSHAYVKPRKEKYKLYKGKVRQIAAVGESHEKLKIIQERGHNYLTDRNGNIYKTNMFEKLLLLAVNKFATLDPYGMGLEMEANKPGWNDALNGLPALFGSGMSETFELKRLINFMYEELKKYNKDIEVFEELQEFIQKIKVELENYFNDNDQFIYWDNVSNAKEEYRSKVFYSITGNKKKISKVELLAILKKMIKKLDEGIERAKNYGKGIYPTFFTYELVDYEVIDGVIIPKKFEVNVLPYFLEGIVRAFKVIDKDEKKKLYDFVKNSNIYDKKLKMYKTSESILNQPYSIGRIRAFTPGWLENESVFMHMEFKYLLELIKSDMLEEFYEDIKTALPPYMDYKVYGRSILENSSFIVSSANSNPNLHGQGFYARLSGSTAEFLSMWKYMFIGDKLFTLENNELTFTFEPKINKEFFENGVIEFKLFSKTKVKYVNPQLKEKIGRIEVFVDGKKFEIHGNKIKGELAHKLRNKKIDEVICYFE
Experiment: TLC of phosphorolysis
Conditions: 20 mM laminaritriose, 10 mM Pi, 100 mM HEPES pH 7.2, 37 °C, 12 h

OC[C@H]1O[C@@H](O[C@@H]2[C@@H](O)[C@H](O[C@H]3[C@H](O)[C@@H](CO)OC(O)[C@@H]3O)O[C@H](CO)[C@H]2O)[C@H](O)[C@@H](O)[C@@H]1O (stereo partly shown) [G3, laminaritriose]
TLC of phosphorolysis: This showed that TaCDP was active exclusively on laminaritriose
